PubChem BioAssay AID624296 (National Center for Advancing Translational Sciences (NCATS), 2012)
The whole screen tested about 350,000 compounds, of which about 9,900 (2.8%) were called active. Inconclusive means that the source gave no clear call. Such entries were picked first, then a sample of the others. Calls come from the whole dose curve; as a rule, active = well fitted activation curve with a large enough effect; inconclusive = small, poorly fitted or top-dose-only effect; inactive = no such curve, though single readings can be large or run the other way. No potency is given beside an inconclusive call; the fits are too rough.

test: A quantitative high throughput screen for small molecules that induce DNA re-replication in MCF 10a normal breast cells.; note: nearly all actives have a fitted effect of over 50% in size; conditions: MCF 10A DNA re-replication, Hoechst nuclear intensity, 48 h; series mostly up to 46.1 µM
Potency is the fitted concentration of half-maximal effect; tags give direction and shape of the fitted curve.

Compound | Potency
CN(C)/C=C/C(=O)c1ccc(-c2ccc(Cl)cc2Cl)o1 | inconclusive [activator, single point]
CCC(C)(C)n1nnnc1C(C(C)C)N(Cc1ccco1)Cc1cc2cc3c(cc2[nH]c1=O)OCO3 (stereo not given) | inconclusive [activator, single point]
CSc1nc2ccccc2cc1/C=C(\C#N)c1cccc(C)c1 | active: 10.3 µM
COc1ccc(/C=C2\SC(=S)N(CC(=O)N3CCN(C)CC3)C2=O)cc1 | inconclusive [activator, partial curve, poor fit]
CC(Sc1nc(N)c2c3c(sc2n1)CSC(C)(C)C3)C(=O)Nc1ccccc1 (stereo not given) | inconclusive [activator, partial curve]
Cc1ccccc1N=C(NOCc1ccccc1)c1nonc1N | inconclusive [activator, partial curve, poor fit]
CCCCn1c(SCC(=O)NCc2ccco2)nc2ccccc2c1=O | inconclusive [activator, single point]
Cc1cc(C)cc(N(CCC(=O)Nc2nnc(C)s2)S(=O)(=O)c2ccc(Cl)cc2)c1 | inconclusive [activator, single point]
CCOC(=O)c1c(NC(=O)CSc2nnc(-c3cccnc3)o2)sc(C(C)=O)c1C | inactive
CCN(CC)C(=O)CSc1nc2ccc(NC(=O)CSc3nnc(COc4ccccc4C)n3C)cc2s1 | inactive
O=C1C=CC(=O)N1Cc1ccccc1 | inconclusive [activator, partial curve, poor fit]
CCc1ccc(S(=O)(=O)/N=C2\C=C(Nc3cccc(C(=O)O)c3)C(=O)c3ccccc32)cc1 | inconclusive [activator, single point]
Cc1nc(N2CCOCC2)c2c(C)c(C(=O)Nc3ccccc3C(F)(F)F)sc2n1 | inactive
COc1ccc(S(=O)(=O)N(CC(=O)NCc2ccco2)c2ccccc2OC)cc1 | inactive
CC(=O)Nc1ccc2c(c1)OCO2 | inactive
COc1ccc(S(=O)(=O)N2CCOCC2)cc1NC(=O)CCCOc1ccc(Cl)cc1C | inactive
CCCc1c(C(=O)NNc2cccc(Cl)c2)cnn1-c1ccccc1 | inconclusive [activator, partial curve, poor fit]
CCOCCCNS(=O)(=O)c1ccc(-n2cnnn2)c(OC)c1 | inconclusive [activator, single point]
CCOC(=O)c1c(C)n(C)c2ccc(OC(C)=O)cc12 | inactive
COc1ccc(CCNC(=O)CNC(=O)c2nn(-c3ccc(OC)c(OC)c3)c(=O)c3ccccc23)cc1OC | inconclusive [activator, single point]
CC1CCN(c2nc(-c3ccco3)c3c(c2C#N)CC(C)(C)OC3)CC1 | inconclusive [activator, single point]
COc1cccc(C2CC(c3ccc(C)cc3)=NN2C(=O)c2ccccc2F)c1OC (stereo not given) | inactive
Cc1ccc(C)c(NC(=O)c2ccccc2NS(=O)(=O)c2cc([N+](=O)[O-])ccc2C)c1 | inactive
Cc1cc(C)nc(SC2CC(=O)N(c3ccc(Cl)cc3)C2=O)n1 (stereo not given) | inconclusive [activator, partial curve, poor fit]

Compound | Potency
COc1ccc(NC(=O)CN(C)CC(=O)Nc2cccc(S(=O)(=O)N(C)c3ccccc3)c2)cc1 | inconclusive [activator, partial curve, poor fit]
NS(=O)(=O)c1ccc(NC(=O)CN2C(=O)C3C4C=CC(C4)C3C2=O)cc1 (stereo not given) | inactive
CC(C)(C)NC(=O)CN(Cc1cccs1)C(=O)CCC(=O)Nc1nccs1 | inconclusive [activator, partial curve, poor fit]
COc1cc(CNc2ccc(O)cc2)cc(Br)c1OCc1ccccc1 | active: 23.1 µM
c1ccc(CC2CCN(C3=Nc4cccc5cccc3c45)CC2)cc1 | active: 9.2 µM
CCN1CCc2c(C#N)c(N3CCCCC3)nc(NCc3ccccc3)c2C1 | inconclusive [activator, single point]
CC(=NC1CCCC1)c1c(C)[nH]n(-c2nc3ccccc3s2)c1=O | inactive
COc1ccc(-c2cc(C(=O)NN)[nH]n2)cc1OC | inconclusive [activator, partial curve, poor fit]
Cn1ncc2c(=S)nc(Cl)[nH]c21 | inconclusive [activator, single point]
COc1cccc2sc(N(CCCN(C)C)C(=O)c3ccc(S(=O)(=O)N4CCc5ccccc5C4)cc3)nc12 | inconclusive [activator, partial curve, poor fit]
COc1ccc(C(=O)Nc2nc(C)c3cc4c(cc3n2)OCO4)cc1 | inconclusive [activator, partial curve, poor fit]
CCc1ccc2c(CC(=O)Nc3nnc(C4CC4)s3)coc2c1 | inconclusive [activator, single point]
CC(C)C(=O)Nc1ccc(NC(=S)NC(=O)c2cc3ccccc3o2)cc1 | inconclusive [activator, single point]
COc1ccccc1CCNC(=O)c1cnn2c(C(F)F)cc(C)nc12 | inactive
CCOC(=O)C1(CCOc2ccccc2)CCN(Cc2cnc(C)s2)CC1 | inconclusive [activator, single point]
Cc1ccc(NS(=O)(=O)c2ccc(CCC(=O)N3CCCC3)cc2)cc1 | inconclusive [activator, single point]
CCOc1cc(C)nc(NCc2ccccc2)n1 | active: 11.6 µM
CC1(C)CC2CC(C)(CN2C(=S)Nc2ccccc2)C1 (stereo not given) | inactive
COc1ccc(C(O)(CCC(C)C)C(CN2CCOCC2)c2ccccc2)cc1 (stereo not given) | inconclusive [activator, single point]
CCOc1ccccc1C(=O)NCC(=O)NNC(=O)CN(C)S(=O)(=O)c1ccc(Cl)cc1 | inactive
CCC1Nc2ncnc(N3CCc4ccccc4C3)c2N(Cc2ccc(Cl)cc2)C1=O (stereo not given) | inconclusive [activator, single point]
CCOC(=O)c1cccc(NC(=O)CSc2nc3ccccc3c(=O)n2CC)c1 | inactive
O=C(/C=C/c1ccc(O)cc1)c1ccc(NC2=C(N3CCCCC3)C(=O)c3ccccc3C2=O)cc1 | active: 6.51 µM
CCCCc1nc2ccccc2c(NC(=O)CN2CCCC2)c1CCC | inactive

Compound | Potency
CCCC1CCc2c(sc(NC(=O)OCC)c2C#N)C1 (stereo not given) | inconclusive [activator, partial curve, poor fit]
COc1cc(/C=C2/C(=O)NN(c3ccccc3)C2=O)cc(Br)c1O | inconclusive [activator, single point]
O=C(Nc1ccc(OC(F)F)c(Cl)c1)C(c1ccccc1)c1ccccc1 | active: 2.31 µM
C/C(=N\OCC(=O)Nc1nc2ccccc2s1)c1ccccc1 | inconclusive [activator, partial curve, poor fit]
COc1ccccc1-c1cn[nH]c1-c1ccc(OCc2ccc(F)cc2)cc1O | inconclusive [activator, single point]
Cc1cccc(NC(=O)c2nc[nH]c2C(=O)Nc2cccc(C)c2)c1 | inconclusive [activator, single point]
Cc1ccc(NC(=O)c2c(NC(=O)CCC(=O)O)sc3c2CCCCC3)cc1 | inconclusive [activator, partial curve]
COc1ccc(NC(=O)Cn2nnc(C(=O)NCc3ccccc3)c2N)c(OC)c1 | active: 16.4 µM
O=C(COC(=O)c1ccc2c(c1)OCCO2)NCCc1ccccc1 | inactive
CCOc1cc(S(=O)(=O)Nc2ccccn2)ccc1F | inactive
CN(C)C(=S)NC(=S)Nc1ccc2ccccc2c1 | inconclusive [activator, partial curve]
COc1cc(OC)cc(C(=O)N[C@H](C(=O)Nc2nc(-c3ccc(OC)c(OC)c3)cs2)C(C)C)c1 | inconclusive [activator, single point]
CCN1C(=O)C(CC(=O)Nc2ccc(OC)cc2)N(Cc2cccnc2)C1=S (stereo not given) | inactive
O=C(NNC(=O)C1CCN(S(=O)(=O)c2ccccc2C(F)(F)F)CC1)c1ccccc1O | inconclusive [activator, partial curve, poor fit]
CC1CCCC(NC(=O)CSC2=Nc3ccccc3C3CC=NN23)C1C (stereo not given) | inconclusive [activator, single point]
Cc1cc(N2CCN(c3ccccc3)CC2)nc(-c2ccccc2O)n1 | inactive
CCc1ccc(/C=N/NC(=O)c2cc(C3CC3)nc3ccccc23)s1 | active: 7.31 µM
COc1ccc(N2CCN(C(=O)c3ccccc3F)CC2)c([N+](=O)[O-])c1 | inconclusive [activator, partial curve, poor fit]
CCOc1cc(CNCCc2ccc(S(N)(=O)=O)cc2)ccc1OCc1ccccc1 | active: 20.6 µM
CC(=O)Nc1ccc(N2CCCCC2)c(C(=O)Nc2cccc(C)c2)c1 | inconclusive [activator, partial curve, poor fit]
COC(=O)C1=C(C)N(CCc2ccccc2)C(=O)C1(NS(=O)(=O)c1ccc(NC(C)=O)cc1)C(F)(F)F (stereo not given) | active: 14.6 µM
C/C(=N\NC(=O)CCCNc1ccc(C)cc1)c1ccccn1 | inconclusive [activator, single point]
